# According to PubChem BioAssay (NCATS):
# Inconclusive results, whose numbers are uncertain, are shown with a selection of clear calls. Where the call is inconclusive, the potency comes from a doubtful curve fit. Calls of active or inactive are those of the source. Unless noted, the call rests on the fitted dose curve; in most records, active means well fitted inhibition curve with a large enough effect; inconclusive means small, poorly fitted or top-dose-only effect; inactive means no such curve, though single readings can be large or run the other way.
# Columns and labels:
# [1] = molecular target: Aldehyde dehydrogenase, mitochondrial (Homo sapiens) (UniProt P05091); experiment: qHTS for Inhibitors of the Aldehyde Dehydrogenase Family (ALDH2) Confirmatory screens (AID 2061303; active means well fitted inhibition curve with a large enough effect; inconclusive means small, poorly fitted or top-dose-only effect; inactive means no such curve, though single readings can be large or run the other way; title and protocol of this record describe different tests; further: nearly all actives have a fitted effect of over 45% in size); details: ALDH inhibition qHTS; activity change, negative = inhibition: at 45.4 µM (top of the series)
# [2] = qHTS for Inhibitors of the Aldehyde Dehydrogenase Family (ALDH1A2, ALDH1A3, ALDH2, ALDH3A1) (AID 2061307); details: ALDH inhibition qHTS; activity change, negative = inhibition: at 50.3 µM (top of the series) unless noted; further: nearly all actives have a fitted effect of over 50% in size; on potency: test system not described further here
# [3] = molecular target: Retinaldehyde dehydrogenase 3 (Homo sapiens) (UniProt P47895); experiment: qHTS for Inhibitors of the Aldehyde Dehydrogenase Family (ALDH1A3) Confirmatory screens (AID 2061311); details: activity change, negative = inhibition: at 46 µM (top of the series); further: nearly all actives have a fitted effect of over 60% in size
# [4] = molecular target: Retinal dehydrogenase 2 (Homo sapiens) (UniProt O94788); experiment: qHTS for Inhibitors of the Aldehyde Dehydrogenase Family (ALDH1A2) Confirmation screens (AID 2061314); details: activity, negative = inhibition: at 45.9 µM (top of the series) unless noted; further: nearly all actives have a fitted effect of over 65% in size
# [5] = molecular target: Aldehyde dehydrogenase 1A1 (Homo sapiens) (UniProt P00352); experiment: qHTS for Inhibitors of the Aldehyde Dehydrogenase Family (ALDH1A1) Confirmatory screens (AID 2061316); details: activity change, negative = inhibition: at 47.3 µM (top of the series); further: nearly all actives have a fitted effect of over 65% in size
# [6] = molecular target: Retinaldehyde dehydrogenase 3 (Homo sapiens) (UniProt P47895); experiment: qHTS for Inhibitors of the Aldehyde Dehydrogenase Family (ALDH1A3) Primary screen (AID 2061315); details: ALDH inhibition qHTS; activity change, negative = inhibition: at 56 µM (top of the series) unless noted
# Potency means the concentration at half of the fitted maximal effect; tags describe the fitted curve by direction and shape.
Structure (SMILES),Potency [1],Potency [2],Potency [3],Potency [4],Potency [5],Potency [6]
Cc1ccc(S(=O)(=O)Nc2cc(F)ccc2C(=O)Nc2nc(-c3ccccc3)cs2)cc1,"inconclusive: 15.9 µM [inhibitor, partial curve, poor fit]",active: 0.224 µM,inactive,active: 5.04 µM,"inconclusive: 20.1 µM [inhibitor, partial curve, poor fit]",
O=c1[nH]c(CN2CCOCC2)nc2sc3c(c12)CCCC3,"inconclusive: 0.891 µM [inhibitor, full curve, poor fit]",inactive,inactive,"inconclusive: 0.0798 µM [inhibitor, full curve, poor fit]",inactive,
COc1ccc(C(=O)N(Cc2ccccc2)Cc2ccc(OC)c(COc3ccc(NC(C)=O)cc3)c2)c(O)c1,inactive,inactive,"inconclusive: 15.9 µM [inhibitor, partial curve, poor fit]","inconclusive: 28.3 µM [inhibitor, partial curve]","inconclusive: 17.9 µM [inhibitor, partial curve]",
COC(=O)c1ccc(O)c2ncc(-c3ccc(C(=O)N4CCNCC4)cc3)cc12,"inconclusive: 15.9 µM [inhibitor, partial curve, poor fit]",inactive,"inconclusive: 4 µM [inhibitor, full curve]","inconclusive: 31.8 µM [inhibitor, partial curve, poor fit]",inactive,
Oc1cc(NCc2ccc(F)cc2)cc2cccnc12,"inconclusive: 15.9 µM [inhibitor, partial curve]","inconclusive: 12.7 µM [inhibitor, partial curve]",active: 1.59 µM,,,"inconclusive: 8.91 µM [inhibitor, partial curve]"
